According to the RNAGym collection of RNA variant scans (doi:10.1073/pnas.2313332121):
Variants at the floor of the assay are shown more often than the library holds them.

B1: TPR 5TU (parent)
chain: GGAUCUUCUCGAUCUAACAAAAAAGACAAAUCUGCCACAAAGCUUGAGAGCAUCUUCGGAUGCAGAGGCGGCAGCCUUCGGUGGCGCGAUAGCGCCAACGUUCUCAACUAUGACACGCAAAACGCGUGCUCCGUUGAAUGGAGUUUAUCAUG

Variants of: B1
Assay: polymerase ribozyme fitness, log enrichment relative to wild type (log ratio); higher = more active; in vitro selection for triplet polymerase activity
Summary of the method: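 Each subunit of a heterodimeric triplet polymerase ribozyme was represented by a PCR-built, transcribed mutant library that underwent triplicate single-round in vitro selection with frozen incubation at −7 °C. Extended constructs were recovered by gel excision, streptavidin-bead capture and RT-PCR, and Illumina sequencing of input and output libraries kept genotypes with ≥10 input reads and ≥1 read per output. Fitness is the logarithm of genotype enrichment relative to wild-type enrichment, from inverse-variance-weighted replicate averages, with a logarithm base of 2.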

Variant | polymerase ribozyme fitness (log ratio)
GGAUCUUCUCGAUCUAACAAAAAAGACAAAUCUGCCACAAAGCUUGAGAGCAUCUUCGGAUGCAGAGGCGGCAGCCUUCGGUGGCGCCAUAGCUCCAACGUUCUCAACUAUGACACGCAAAACGCGUGCUCCGUUGAAUGGAGUUUAUCAUG [G88C G94U] | ≤ -4.2
GGAUCUUCUCGAUCUAACAAAAAAGACAAAUCUGCCACAAAGCUUGAGAGCAUCUUCGGAUGCAGAGGCGGCAGCCUUCGGUGGCGCGUUGGCGCCAACGUUCUCAACUAUGACACGCAAAACGCGUGCUCCGUUGAAUGGAGUUUAACAUG [A89U A91G U148A] | ≤ -4.2
GGAUCUUCUCGAUCUAACAAAAAAGACAAAUCUGCCACAAAGCUUGAGAGCAUCUUCGGAUGCAGAGGCGGCAGCCUUCGGUGGCGCAAUAGCGCCAACGUUCUCAACUAUGACACGCAAAACGCGUGCUCCGUUGAAUGGAGUUUAUCACG [G88A U151C] | ≤ -4.2
GGAUCUUCUCGAUCUAACAAAAAAGACAAAUCUGCCACAAAGCUUGAGAGCAUCUUCGGAUGCAGAGGCGGCAGCCUUCGGUGGCGCUAUAGCGCCAACGUUCUCAACUAUGACACGCAAAACGCGUGCUCCGUUGAACGGAGUUUAUCAUG [G88U U139C] | ≤ -4.2
GGAUCUUCUCGAUCUAACAAAAAAGACAAAUCUGCCACAAAGCUUGAGAGCAUCUUCGGAUGCAGAGGCGGCAGCCUUCGGUGGCGCAAUAGCGCCAAGGUUCUCAACUAUGACACGCAAAACGCGUGCUCCGUUGAAUGGAGUUUAUCAUG [G88A C99G] | ≤ -4.2
GGAUCUUCUCGAUCUAACAAAAAAGACAAAUCUGCCACAAAGCUUGAGAGCAUCUUCGGAUGCAGAGGCGGCAGCCUUCGGUGGCGCAAUAGCGCCAAUGUUCUCAACUAUGACACGCAAAACGCGUGCUCCGUUGAAUGGAGUUUAUCAUG [G88A C99U] | ≤ -4.2
GGAUCUUCUCGAUCUAACAAAAAAGACAAAUCUGCCACAAAGCUUGAGAGCAUCUUCGGAUGCAGAGGCGGCAGCCUUCGGUGGCGCGUUAGCGCCAAGGUUCUCAACUAUGACACGCAAAACGCGUGCUCCGUUGAAUGGAGUUUAUCAAG [A89U C99G U151A] | ≤ -4.2
GGAUCUUCUCGAUCUAACAAAAAAGACAAAUCUGCCACAAAGCUUGAGAGCAUCUUCGGAUGCAGAGGCGGCAGCCUUCGGUGGCGCCAUAGCGCCAACGAUCUCAACUAUGACACGCAAAACAUGUGCUCCGUUGAAUGGAGUUUAUCAUG [G88C U101A G124A C125U] | ≤ -4.2
GGAUCUUCUCGAUCUAACAAAAAAGACAAAUCUGCCACAAAGCUUGAGAGCAUCUUCGGAUGCAGAGGCGGCAGCCUUCGGUGGCGCGUUAGCGCCAACGUUGUCAACUCUGACACGCAAAACGCGUGCUCCGUUGAAUGGAGUUUAUCAUG [A89U C103G A110C] | ≤ -4.2
GGAUCUUCUCGAUCUAACAAAAAAGACAAAUCUGCCACAAAGCUUGAGAGCAUCUUCGGAUGCAGAGGCGGCAGCCUUCGGUGGCGCUAUAGCGCCAACGUUCUCAACUAUGACACGGAAAACGCGUGCUCCGUUGAAUGGAGUUUAUCAUG [G88U C118G] | ≤ -4.2
GGAUCUUCUCGAUCUAACAAAAAAGACAAAUCUGCCACAAAGCUUGAGAGCAUCUUCGGAUGCAGAGGCGGCAGCCUUCGGUGGCGCUAUAGCGCCAACGUUCUCAACUAUGACACGCAAAACGAGUGCUCCGUUGAAUGGAGAUUAUCAUG [G88U C125A U144A] | ≤ -4.2
GGAUCUUCUCGAUCUAACAAAAAAGACAAAUCUGCCACAAAGCUUGAGAGCAUCUUCGGAUGCAGAGGCGGCAGCCUUCGGUGGCGCAAUAGCGCCAACGUUCUCAACUAUGACACGCAAAACGCGUGCUCCGUUGAAUGGAGUUUACCAUG [G88A U148C] | ≤ -4.2
GGAUCUUCUCGAUCUAACAAAAAAGACAAAUCUGCCACAAAGCUUGAGAGCAUCUUCGGAUGCAGAGGCGGCAGCCUUCGGUGGCGCUAUAGCGCAAACGUUCUCAACUAUGACACGCAAAACGCGUGCUCCGUUGAAUGGAGUUUAUCAUG [G88U C96A] | ≤ -4.2
GGAUCUUCUCGAUCUAACAAAAAAGACAAAUCUGCCACAAAGCUUGAGAGCAUCUUCGGAUGCAGAGGCGGCAGCCUUCGGUGGCGCCAUAGCGCCAACGUUCUCAACUAUGACACGCGAAACGCGUGCUCCGUUGAAUGGAGUUUAUCAUG [G88C A119G] | ≤ -4.2
GGAUCUUCUCGAUCUAACAAAAAAGACAAAUCUGCCACAAAGCUUGAGAGCAUCUUCGGAUGCAGAGGCGGCAGCCUUCGGUGGCGCCAUAGCGCCAAGGUUCUCAACUAUGACACGCAAAACGCGUGCUCCGUUGAAUGGUGUUUAUCAUG [G88C C99G A142U] | ≤ -4.2
GGAUCUUCUCGAUCUAACAAAAAAGACAAAUCUGCCACAAAGCUUGAGAGCAUCUUCGGAUGCAGAGGCGGCAGCCUUCGGUGGCGCAAUAGCGCCAACGUUCUCAACUAUGACACGCAAAACGCGUGCUCCGGUGAAUGGAGUUUAUCAUG [G88A U134G] | ≤ -4.2
GGAUCUUCUCGAUCUAACAAAAAAGACAAAUCUGCCACAAAGCUUGAGAGCAUCUUCGGAUGCAGAGGCGGCAGCCUUCGGUGGCGCAAUAGCGCCAACGUUCUCUACUAUGACACGCAAAACGCGUGCUCCGUUGAUGGGAUGUUAUCAUG [G88A A106U A138U U139G G143U U144G] | ≤ -4.2
GGAUCUUCUCGAUCUAACAAAAAAGACAAAUCUGCCACAAAGCUUGAGAGCAUCUUCGGAUGCAGAGGCGGCAGCCUUCGGUGGCGCAAUAGCGGCAACGUUCUCAACUAUGACAAGCGAAACGCGUGCUCCGUUAAAUGGAGUCUAUCAUG [G88A C95G C116A A119G G136A U145C] | ≤ -4.2
GGAUCUUCUCGAUCUAACAAAAAAGACAAAUCUGCCACAAAGCUUGAGAGCAUCUUCGGAUGCAGAGGCGGCAGCCUUCGGUGGCGCCAUAGCGCCAACGUUCUCAACUAUGGAACGCAAAACGCGUGCUCCGUUGAAUGGAGUUUAUCAUG [G88C A113G C114A] | ≤ -4.2
